# Out of some 310,000 compounds screened, about 14,000 (4.5%) showed an effect of 50% or more. Effects have a minus sign here. The list shows a part of the results.
# Target: human ether-à-go-go-related gene (hERG) potassium channel (human, UniProt Q12809)
# Assay: primary screen, population patch clamp on CHO cells stably expressing hERG
# 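Further: peak tail current of the secondary pulse compared with the same well before compound.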
# Chain of human ether-à-go-go-related gene (hERG) potassium channel (Q12809 whole entry, looked up): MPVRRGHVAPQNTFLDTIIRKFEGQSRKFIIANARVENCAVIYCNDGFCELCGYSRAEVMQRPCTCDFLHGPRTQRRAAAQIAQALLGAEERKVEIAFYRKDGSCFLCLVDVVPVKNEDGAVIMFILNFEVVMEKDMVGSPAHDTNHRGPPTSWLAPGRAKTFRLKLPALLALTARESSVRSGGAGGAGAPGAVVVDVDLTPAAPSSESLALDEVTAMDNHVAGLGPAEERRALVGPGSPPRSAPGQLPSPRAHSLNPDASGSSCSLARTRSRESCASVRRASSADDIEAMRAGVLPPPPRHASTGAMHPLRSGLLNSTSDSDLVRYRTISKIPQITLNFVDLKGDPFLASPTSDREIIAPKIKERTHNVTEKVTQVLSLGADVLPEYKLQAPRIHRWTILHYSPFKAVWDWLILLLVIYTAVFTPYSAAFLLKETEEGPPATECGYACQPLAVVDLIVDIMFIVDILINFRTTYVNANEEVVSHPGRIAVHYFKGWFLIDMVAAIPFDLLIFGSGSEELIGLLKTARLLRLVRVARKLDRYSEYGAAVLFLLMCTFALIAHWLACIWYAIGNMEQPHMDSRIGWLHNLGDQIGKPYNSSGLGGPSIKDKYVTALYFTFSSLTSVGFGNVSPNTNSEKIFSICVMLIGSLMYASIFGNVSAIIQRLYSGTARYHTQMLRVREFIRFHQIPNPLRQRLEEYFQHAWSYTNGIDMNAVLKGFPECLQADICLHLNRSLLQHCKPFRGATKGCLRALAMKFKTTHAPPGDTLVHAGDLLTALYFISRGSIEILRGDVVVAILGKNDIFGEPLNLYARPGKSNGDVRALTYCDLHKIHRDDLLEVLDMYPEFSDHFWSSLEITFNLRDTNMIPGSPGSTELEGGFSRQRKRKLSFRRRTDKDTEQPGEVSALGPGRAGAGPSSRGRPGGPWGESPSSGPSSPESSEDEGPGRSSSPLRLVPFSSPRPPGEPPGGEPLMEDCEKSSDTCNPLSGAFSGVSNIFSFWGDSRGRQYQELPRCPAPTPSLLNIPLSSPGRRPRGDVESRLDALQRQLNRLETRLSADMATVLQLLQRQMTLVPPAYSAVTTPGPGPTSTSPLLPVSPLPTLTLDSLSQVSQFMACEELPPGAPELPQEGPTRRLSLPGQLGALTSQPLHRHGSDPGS
row,SMILES,"hERG current change (%, negative = inhibition) at 10uM [%]"
1,COc1ccccc1NC(=O)C1=C(C)NC(=O)NC1c1ccc(C)s1 (stereo not drawn),10.7
2,C=CCOc1ccc(/C=C/C(=O)OCC(=O)N(C)CC(=O)Nc2ccccc2Cl)cc1,-4.18
3,O=C(NCCC(=O)N1CCN(C(=O)c2ccco2)CC1)c1ccc(Br)cc1,-28.6
4,CCOC(=O)C1(CCCc2ccccc2)CCN(Cc2cn(CC)nc2C)CC1,-74.1
5,CNC(=O)c1ccsc1NC(=O)C1CCN(S(=O)(=O)c2cccs2)CC1,-55.1
6,CCC(Oc1ccccc1)C(=O)Nc1nnc(S(=O)(=O)N2CCCC2)s1 (stereo not drawn),7
7,CC1CCCC(NC(=O)C2CCN(S(=O)(=O)c3cnc[nH]3)CC2)C1C (stereo not drawn),10.2
8,Cc1nc(Nc2cccc(F)c2)c2oc3ccccc3c2n1,7.85
9,O=C(O)CC(Cc1ccc(Cl)cc1)C(=O)NCc1ccccc1 (stereo not drawn),3.42
10,CN(Cc1cccs1)C(=O)CN1C(=O)c2ccccc2S1(=O)=O,5.39
11,CCCCSc1ccc(NC(=O)c2cccnc2)cc1,4.42
12,CSc1nncc(/C(C)=N/O)n1,8.64
13,CCn1cnc2sc(C(=O)Nc3ccccc3OC)c(C)c2c1=O,0.29
14,COc1ccc(CCNC(=O)CCC(=O)NC2CCCCC2)cc1OC,5.82
15,CC1(c2ccc(Cl)cc2Cl)OCC(Cn2ccnc2)O1.O=C(O)C(=O)O (stereo not drawn),-10
16,COc1ccc(Cc2nnc(N/N=C/c3ccc(C)o3)[nH]c2=O)cc1,25.9
17,Cc1nc(NC(=O)c2cccs2)ccc1Br,2.41
18,CC1CCCN(C(C(=O)Nc2ccc(C(C)C)cc2)c2ccc3c(c2)OCO3)C1 (stereo not drawn),-1.07
19,Cc1ccc2cccc(Oc3ccc([N+](=O)[O-])cc3[N+](=O)[O-])c2n1,-7.96

row,SMILES,"hERG current change (%, negative = inhibition) at 10uM [%]"
1,CCCCN(CCCC)S(=O)(=O)c1ccc(NC(=O)Cc2cccs2)cc1,13.5
2,CC(=O)OC[C@H]1O[C@H](C/C=N/OC[C@@H](O)[C@H]2O[C@@H]3OC(C)(C)O[C@@H]3[C@H]2O)C=C[C@@H]1OC(C)=O,6.38
3,CC(C)OCc1c(C(=O)OC/C(O)=C(\C#N)c2nc3ccccc3[nH]2)oc2ccccc12,31.1
4,COC(=O)C1=C(c2ccc(F)cc2OCc2ccccc2)C[C@@H]2CC[C@H]1N2C(=O)NCCOc1ccccc1Cl,-0.754
5,CCOC(=O)c1ccc(S(=O)(=O)N2CCNCC2)cc1,-16.6
6,CCOC(=O)CSc1nc2ccc(C)cc2[nH]1.Cl,2.21
7,Cn1nc(C(F)(F)F)c(-c2ccc(F)cc2)c1NC(=O)c1cccnc1,4.17
8,O=C(NCCN1C(=O)S/C(=C\c2ccc(Cl)cc2)C1=O)c1ccc(F)c(S(=O)(=O)N2CCOCC2)c1,-12.3
9,CS(=O)(=O)N(CCc1ccccc1)CC(=O)NCc1ccco1,-3.21
10,CC(SC(=S)N1CCCC1)C(=O)O (stereo not drawn),17
11,O=C(NC(=S)NCCC1=CCCCC1)c1ccccc1Br,9.45
12,COc1ccc(OC)c(Nc2cc(C)nc3ccc(C)cc23)c1,-68.6
13,COCCN(C(=O)COC(=O)c1c(NC(C)=O)sc(C)c1C)c1c(N)n(Cc2ccccc2)c(=O)[nH]c1=O,-31.7
14,COc1cccc(C2CC(=O)N3CN(c4ccccc4F)CSC3=C2C#N)c1 (stereo not drawn),8.76
15,CC(C)N1CCNCC1.Cl,30.1
16,COc1ccccc1-n1c(O)c(/C=C2\C=Nc3ccccc32)c(=O)[nH]c1=O,13
17,O=C(CN1c2ccccc2Sc2ccccc21)N/N=C/c1ccccc1,-8.41
18,COc1ccc(CCC(=O)NCCS(=O)(=O)N2CCN(c3ccc(F)cc3)CC2)cc1,-58.8
19,Cc1ccc2nc(SCC3CCCCO3)[nH]c2c1 (stereo not drawn),-11.6

row,SMILES,"hERG current change (%, negative = inhibition) at 10uM [%]"
1,OC(CN1CCN(c2cccc(Cl)c2)CC1)c1ccc(F)cc1 (stereo not drawn),-47.2
2,CCOC(=O)COc1ccc(C(c2c(C)[nH][nH]c2=O)c2c(C)[nH][nH]c2=O)cc1,10.4
3,CS(=O)(=O)Oc1ccc(/C=C2\C(=N)N3N=C(CC(=O)N4CCOCC4)SC3=NC2=O)cc1Cl,-2.27
4,O=C(CSc1nnc(NC(=O)c2ccccc2F)s1)NCc1ccco1,17.6
5,COc1ccc(NC(=S)N2CCC(NC(=O)c3ccco3)CC2)cc1,-6.59
6,CC(=O)Nc1nnc(-c2ccccn2)o1,24.6
7,Clc1ccc(CSc2ccc(-c3ccccn3)nn2)cc1,-2.04
8,CN(CC(=O)NC(=O)NC1CCCCC1)c1ccccc1,10.2
9,Oc1cc(Cc2ccccc2)cnc1CN1CCCCC1,-5.73
10,Clc1cc(CSc2ccccc2)nc(-c2ccccc2)n1,3.13
11,CCOC(=O)C1=C(COc2ccc(F)cc2Cl)NC(=O)NC1c1cc(C)ccc1C (stereo not drawn),10.6
12,CCC(=O)n1nc(-c2cccnc2)nc1NCc1ccc(OC)cc1,-8.51
13,NC(=O)COC(=O)CSc1cccc2cccc(Cl)c12,14.8
14,COC(=O)c1ccc2[nH]ccc2c1,-2.6
15,CC(Oc1ccccc1)c1ccnc2nc(/N=C/N(C)C)nn12 (stereo not drawn),13.7
16,CCOC(=O)C1CCCN(C(=O)COc2ccc(N(C)S(=O)(=O)c3ccc(C)cc3)cc2)C1 (stereo not drawn),-56.8
17,O=C(NCCc1ccccc1)c1cc(S(=O)(=O)N2CCOCC2)ccc1F,-15.5
18,COc1cc(C(=O)NCCOc2ccc(F)cc2)c(Br)c(OC)c1OC,3.42
19,O=C(Nc1ccccc1)c1ccc[nH]1,5
